# Measurements reported in PubChem BioAssay AID493208 (National Center for Advancing Translational Sciences (NCATS), 2011).
# The campaign covered roughly 44,000 compounds. About 340 (0.77%) were called active. Inconclusive results, whose numbers are uncertain, are shown with a selection of clear calls. The call rests on the fitted dose curve; in most records, active means well fitted inhibition curve with a large enough effect; inconclusive means small, poorly fitted or top-dose-only effect; inactive means flat fitted curve, though single readings scatter. Potencies of inconclusive entries are left out as doubtful fits.
# Assay: Acumen qHTS Assay for Inhibitors of the mTORC1 Signaling Pathway in MEF (Tsc2-/-, p53-/-) Cells: Sytravon; further: nearly all actives have a fitted effect of over 50% in size
# Conditions: phospho-rpS6 immunofluorescence/PI, 24 h; series mostly up to 38.3 µM
# Outline: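 Immunofluorescence of rpS6 phosphorylation in Tsc2-/-, p53-/- MEFs after 24 h compound exposure, normalized to propidium iodide signal. Activity is expressed as % positive cells, thresholded with 7.5 nM rapamycin.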
# Potency means the concentration at half of the fitted maximal effect; tags describe the fitted curve by direction and shape.
row,SMILES,Potency
1,COc1ccc(NS(=O)(=O)c2cc(Br)cc3c2N(C(=O)C2CC2)CC3)cc1OC,"inconclusive [falling, partial curve, poor fit]"
2,O=c1cc(-c2ccc(F)cc2)nc(SCc2nc(-c3cccc(C(F)(F)F)c3)no2)[nH]1,"inconclusive [falling, partial curve, poor fit]"
3,CCc1ccc(N2C(=O)CSC23C(=O)N(Cc2cccc(OC)c2)c2ccccc23)cc1 (stereo not drawn),inactive
4,C=CCc1ccc(OCc2ccc(C(=O)Nc3ccc(NC(C)=O)cc3)o2)c(OC)c1,"inconclusive [falling, single point]"
5,COc1cccc(NC(CNS(=O)(=O)c2ccc(Cl)cc2)c2ccccc2)c1 (stereo not drawn),"inconclusive [falling, single point]"
6,CCN(CCCNC(=O)c1cc2cc3ccc(OC)cc3nc2s1)c1cccc(C)c1,"inconclusive [falling, single point]"
7,Cc1cc(C)cc(NC(=O)c2cnn(-c3ccc(C)c(C)c3)c2C2CCNCC2)c1,active: 7.36 µM
8,O=C(NC1CC(=O)N(c2cccc(F)c2)C1)C(c1ccccc1)c1ccccc1 (stereo not drawn),inactive
9,COc1ccc(Nc2c3c(nc4ccc(NC(=O)/C=C/c5cccc(OC)c5OC)cc24)CCCC3)cc1OC,active: 3.69 µM
10,Cc1ccccc1Nc1c(-c2ccc(Br)o2)nc2ccc(Cl)cn12,"inconclusive [falling, full curve, poor fit]"
11,CCOc1ccc(-c2nn(CC(=O)NC3CCCC3)c3c2cnc2ccc(C)cc23)cc1,inactive
12,CCOc1ccc(OCC)c(NC(=O)Cn2nc(CC)n3c(cc4sccc43)c2=O)c1,"inconclusive [falling, partial curve, poor fit]"
13,CC(C)N(C)C1CCN(S(=O)(=O)c2ccc3[nH]c(=O)ccc3c2)CC1,inactive
14,O=C(Nc1ccccc1Br)C(Cc1ccccc1)NS(=O)(=O)c1cccc2nsnc12 (stereo not drawn),inactive
15,CCN(CC)CCNC(=O)c1ccc2nc(CCc3ccccc3)oc2c1,"inconclusive [falling, single point]"
16,CC(=O)Nc1ccc(-c2cc(C(=O)O)c3c(-c4ccccc4)[nH]nc3n2)cc1,"inconclusive [activator, partial curve]"
17,CCN(CC)CC(C)CNC(=O)c1cc(-c2ccc(Br)s2)nc2ccccc12 (stereo not drawn),"inconclusive [falling, partial curve, poor fit]"
18,COc1ccc(C2(Nc3cccc(C(=O)O)c3C)C(=O)c3ccccc3C2=O)cc1,"inconclusive [falling, single point]"
